US11365205B2 (Aurigene Discovery Technologies Limited, priority 2018, dated 2022)

These molecules were tested against PRMT5/MEP50 Complex (Homo sapiens (Human), UniProt O14744) (assay: PRMT5 inhibition based on TR-FRET assay). Conditions: 32 nM PRMT5:MEP50, 50 nM Histone-H4 peptide, 1 μM SAM.
Format: biochemical
Description: PRMT5 Inhibition Based on TR-FRET Assay:
Protein arginine methyltransferase 5 (PRMT5) is a type II arginine methyltransferase that catalyze mono- and symmetric demethylation on arginine residues of histone or non-histone proteins in presence of S-adenosylmethionine (AdoMet or SAM) a cofactor responsible for donating the methyl group. PRMT5 is reported to be overexpressed in several human cancers. To identify compounds that inhibit the PRMT5 and decrease its activity, a TR-FRET based assay has been established. Time-resolved fluorescence resonance energy transfer (TR-FRET) HTS assays are homogeneous proximity assays where the interaction of two dye-labeled binding partners is detected by the energy transfer between a donor and an acceptor dye and the subsequent light emission by the acceptor dye. PRMT5 catalyzes Histone H4 peptide which is biotin tagged to the Lysine amino acid at carboxyl end, in presence of S-adenosyl-1-methionine (SAM) to methylate the peptide. The antibody specific to mono methylated H4 peptide (H4R3) with Ig conjugate binds to the methylated peptide, indirectly binding to the Europium lanthanide. SureLight Allophycocyanin-Streptavidin binds to the biotin tag of the peptide, therefore accepting the energy transferred from the Europium lanthanide. This energy transfer between Europium to SureLight Allophycocyanin is a direct measure of the activity/inhibition of the PRMT5 enzyme.
Assay buffer: 20 mM BICINE (pH 7.6), 25 mM NaCl, 2 mM DTT, 0.01% Tween-20 and 0.01% BSA.
The compound dilutions were prepared as 7.5% DMSO stock solutions in assay buffer. To 2 μL (7.5×) of test compound, 5 μL of PRMT5 enzyme prepared in assay buffer (Final concentration of 32 nM in 15 μL reaction volume) was added and allowed for 30 minutes pre-incubation time in a white polystyrene 384-well plate at room temperature. […] The plates were then read on Victor-3 with Excitation at 340 nm and Emissions collected at 615 and 665 nm in TR-FRET protocol. […]

Sequence of UniProt O14744 (O14744 whole entry): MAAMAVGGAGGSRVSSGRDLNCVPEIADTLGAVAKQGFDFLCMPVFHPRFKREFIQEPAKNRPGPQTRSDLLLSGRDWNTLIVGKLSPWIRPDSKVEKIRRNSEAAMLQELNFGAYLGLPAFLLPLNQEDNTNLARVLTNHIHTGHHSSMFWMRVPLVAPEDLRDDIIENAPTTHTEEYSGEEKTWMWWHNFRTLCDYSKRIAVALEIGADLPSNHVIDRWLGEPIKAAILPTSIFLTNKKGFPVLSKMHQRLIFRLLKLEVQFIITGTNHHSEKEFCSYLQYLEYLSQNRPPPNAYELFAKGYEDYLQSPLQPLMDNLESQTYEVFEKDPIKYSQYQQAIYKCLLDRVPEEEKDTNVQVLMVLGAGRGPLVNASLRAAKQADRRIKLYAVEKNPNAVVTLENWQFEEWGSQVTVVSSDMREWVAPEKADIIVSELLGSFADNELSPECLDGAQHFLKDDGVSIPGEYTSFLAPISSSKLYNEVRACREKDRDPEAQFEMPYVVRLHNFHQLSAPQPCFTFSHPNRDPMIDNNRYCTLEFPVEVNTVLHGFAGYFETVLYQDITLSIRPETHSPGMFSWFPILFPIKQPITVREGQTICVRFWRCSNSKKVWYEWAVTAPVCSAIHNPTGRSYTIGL
Sequence of UniProt O14744 (Q9BQA1 whole entry partner): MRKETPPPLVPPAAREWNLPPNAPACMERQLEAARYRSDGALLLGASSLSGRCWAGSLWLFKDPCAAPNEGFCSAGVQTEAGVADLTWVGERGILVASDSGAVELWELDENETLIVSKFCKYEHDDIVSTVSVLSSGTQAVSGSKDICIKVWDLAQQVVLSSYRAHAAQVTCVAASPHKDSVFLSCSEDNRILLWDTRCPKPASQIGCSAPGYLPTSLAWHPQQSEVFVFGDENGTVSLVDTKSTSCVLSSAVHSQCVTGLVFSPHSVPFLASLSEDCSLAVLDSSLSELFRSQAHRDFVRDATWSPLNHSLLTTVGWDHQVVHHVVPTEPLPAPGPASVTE

Row | IC50 [nM] | Structure (SMILES)
1 | 60 | N#Cc1ccc(CN2CCN(CC(O)CN3CCc4ccccc4C3)C2=O)nc1 (single isomer, unassigned) [Example 35a, 6-((3-(3-(3,4-Dihydroisoquinolin-2(1H)-yl)-2-hydroxypropyl)-2-oxoimidazolidin-1-yl)methyl)nicotinonitrile]
2 | 1750 | N#Cc1ccc(CN2CCN(CC(O)CN3CCc4ccccc4C3)C2=O)nc1 (single isomer, unassigned) [Example 35b, 6-((3-(3-(3,4-Dihydroisoquinolin-2(1H)-yl)-2-hydroxypropyl)-2-oxoimidazolidin-1-yl)methyl)nicotinonitrile]
3 | 90 | N#Cc1ccc(CN2CCN(CC(O)CN3CCc4ccccc4C3)C2=O)nc1 (stereo not drawn) [Example 35, 6-((3-(3-(3,4-Dihydroisoquinolin-2(1H)-yl)-2-hydroxypropyl)-2-oxoimidazolidin-1-yl)methyl)nicotinonitrile]
